# Experimental data from the supplement of paper PMC4166925.
# ± gives the standard deviation of the averaged measurements. Over roughly 33,000 sequences, “E-score (dimensionless, -0.5 to 0.5)” has its median near -0.049; the highest 2% begin near 0.37. Some of the results follow.
# Test system: T1, PmTbr T-box DNA-binding domain (GST fusion)
# T1 sequence: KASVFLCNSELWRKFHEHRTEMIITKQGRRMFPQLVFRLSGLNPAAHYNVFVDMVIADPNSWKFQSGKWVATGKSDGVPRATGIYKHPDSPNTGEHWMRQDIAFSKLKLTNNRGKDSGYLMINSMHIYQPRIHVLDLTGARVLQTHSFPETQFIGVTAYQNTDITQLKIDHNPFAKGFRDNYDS
# Assay: PBM E-score of 8-mer (E-score (dimensionless, -0.5 to 0.5)); Tbr is Tbrain of the sea star Patiria miniata (Pm) or the sea urchin Strongylocentrotus purpuratus (Sp); higher = stronger binding preference; most listed sequences are background and not binding sites
# Details: the construct has about 5 more residues each side
# How it was run: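 Using the Universal PBM Analysis Suite, every ungapped 8-mer received an enrichment E-score averaged over duplicate arrays. Probe intensities came from double-stranded Universal Agilent oligonucleotide arrays incubated with 200 nM GST-fused Tbr T-box DNA-binding domain in PBS (pH 7.5). That protein was expressed in BL21 E. coli at 20 °C and purified by glutathione affinity chromatography.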
row,Sequence,PBM E-score of 8-mer
1,AGAATTTC,0.0646 ± 0.03
2,ATCCGGTA,-0.0515 ± 0.09
3,ACAACCCT,0.0544 ± 0.021
4,ATTTGAAA,-0.25 ± 0.036
5,ACCGTACG,0.155 ± 0.072
6,GGATCGAC,-0.0264 ± 0.071
7,CCAAAGGA,-0.186 ± 0.024
8,ACATCAAA,0.091 ± 0.013
9,AGAAGTCA,0.0284 ± 0.021
10,ATACTGTC,0.0706 ± 0.013
11,AGGCGCGC,0.152 ± 0.021
12,CTCCTGCA,-0.0599 ± 0.014
13,ATGTTTAA,-0.0841 ± 0.085
14,AGAGAACG,0.12 ± 0.027
15,ACAAAGGG,-0.0602 ± 0.048
16,CGGCTACG,-0.00354 ± 0.0089
17,GAGTCTAA,-0.171 ± 0.031
18,CGACAGAA,0.0988 ± 0.053
19,GGCACACA,0.17 ± 0.081
20,CGTGTTAA,0.409 ± 0.029
21,CATCCGAG,-0.137 ± 0.0093
22,CGTGCCAC,0.274 ± 0.03
23,GCTTTCAA,-0.149 ± 0.038
24,ACAGGCTC,0.0148 ± 0.018
25,ATTGCTAG,0.0494 ± 0.021

row,Sequence,PBM E-score of 8-mer
1,GGAGCTCA,-0.0734 ± 0.021
2,GGGGTAAC,-0.0702 ± 0.11
3,CGGTTCAA,-0.33825 ± 2.1e-05
4,AGCGTGGA,-0.0691 ± 0.051
5,GCCAGGGA,-0.233 ± 0.004
6,ATCACAAA,0.0643 ± 0.013
7,AGTCCTTA,-0.161 ± 0.024
8,CCGTTAAA,0.148 ± 0.013
9,CTCAGAAC,0.00484 ± 0.039
10,CACAGCCG,-0.0675 ± 0.11
11,AACATCGA,-0.0231 ± 0.048
12,CAAATCGA,-0.031 ± 0.074
13,ATACGTTC,-0.177 ± 0.057
14,ACTCTATC,-0.0533 ± 0.053
15,GGTGCTTA,0.0849 ± 0.048
16,GACGCCGC,-0.00907 ± 0.019
17,ACCCGGCA,0.102 ± 0.03
18,CCGCAATA,-0.17 ± 0.032
19,CAACAAAG,0.0162 ± 0.028
20,GATACGAA,-0.139 ± 0.035
21,ACAGTACG,-0.1 ± 0.058
22,ATGCGCAT,-0.0058 ± 0.033
23,ATCGGGCG,-0.0185 ± 0.02
24,CGATGAGC,-0.174 ± 0.012
25,AATAGTAC,-0.0704 ± 0.049

row,Sequence,PBM E-score of 8-mer
1,CGTACGAG,-0.098 ± 0.032
2,CGTTTGAA,-0.0782 ± 0.0035
3,CTATGAAG,-0.308 ± 0.038
4,AAGGTGGC,0.383 ± 0.021
5,GCGTGAAC,0.405 ± 0.021
6,GCTCTGTA,-0.194 ± 0.091
7,AGTAAAAA,-0.24 ± 0.0046
8,CTACGCTC,-0.136 ± 0.019
9,ATCTCCTC,-0.0533 ± 0.0073
10,AGTAGGGA,-0.263 ± 0.03
11,ACGGGGGG,-0.0813 ± 0.018
12,AATGAACC,-0.089 ± 0.011
13,ACCACCGT,0.159 ± 0.013
14,AATATTCC,-0.128 ± 0.04
15,CCGAATGA,-0.178 ± 0.031
16,CGGCGCAC,-0.00796 ± 0.085
17,AGCCTCAC,0.0896 ± 0.045
18,GCGCCCCC,-0.0736 ± 0.063
19,CCGTCGAG,-0.102 ± 0.072
20,ATTTTGCG,0.1628 ± 0.0003
21,AAATAATT,0.0108 ± 0.052
22,AAGGGTTA,-0.066 ± 0.037
23,AATATCGA,-0.0471 ± 0.064
24,GTTAAGTA,0.105 ± 0.048
25,CTCATATA,-0.0937 ± 0.018

row,Sequence,PBM E-score of 8-mer
1,CGCATCCC,-0.0665 ± 0.014
2,AAACTATT,-0.168 ± 0.02
3,GATCCGGC,-0.0877 ± 0.02
4,CACGGGAG,-0.12 ± 0.028
5,CAGCCGAA,-0.286 ± 0.021
6,ACGGGCCT,-0.236 ± 0.081
7,CGCCGGTA,0.028 ± 0.015
8,CGCGAAAC,0.355 ± 0.0087
9,CGTACGTA,-0.0915 ± 0.031
10,AGCGCAGA,-0.0321 ± 0.09
11,GCATTCCA,-0.1998 ± 0.00052
12,AAAACTAA,-0.0943 ± 0.15
13,ATGGTGAA,-0.0499 ± 0.014
14,CTGATGCA,0.0307 ± 0.013
15,ATGAATCC,-0.0157 ± 0.057
16,ATCTTTAG,-0.00456 ± 0.01
17,CGTCCTGC,-0.174 ± 0.025
18,CGATGACC,-0.0309 ± 0.049
19,ACAGCGAT,-0.09441 ± 0.00073
20,CCACTCGG,0.0588 ± 0.016
21,TATACGCA,0.0101 ± 0.039
22,AGTCGCGC,0.248 ± 0.013
23,CCGATGAC,-0.0168 ± 0.02
24,ATTCCGCC,-0.0779 ± 0.068
25,CAAACAGA,-0.178 ± 0.024

row,Sequence,PBM E-score of 8-mer
1,ACCAATTC,0.134 ± 0.035
2,CGGCTCCA,-0.101 ± 0.0089
3,CCAGTGCG,0.133 ± 0.074
4,CATGTTGC,0.104 ± 0.014
5,ATCTAGGA,-0.157 ± 0.038
6,ATGATAAG,-0.0825 ± 0.014
7,AATAAGGT,0.0297 ± 0.12
8,ACAAGCGT,0.127 ± 0.046
9,ACCACTTA,0.00984 ± 0.039
10,GCAGGAGA,-0.053 ± 0.049
11,CAGGTCGG,0.0808 ± 0.078
12,GACCCAGC,-0.136 ± 0.072
13,CTTATTGA,-0.2758 ± 0.00037
14,CTATCCGC,-0.0974 ± 0.013
15,ATACTACG,-0.142 ± 0.039
16,AGCGGGCG,0.00662 ± 0.1
17,CAGCCATC,-0.011 ± 0.025
18,GCGTCTAC,0.0177 ± 0.037
19,ACCCGTAT,0.0722 ± 0.14
20,AGATTCTA,-0.144 ± 0.0051
21,AATTAAAC,-0.047 ± 0.035
22,CAAAGTAC,-0.103 ± 0.0023
23,CACGAATA,0.153 ± 0.016
24,GCAAGGAA,0.0687 ± 0.034
25,AGGCTTAG,-0.2567 ± 0.0017

row,Sequence,PBM E-score of 8-mer
1,ACTACCAT,-0.115 ± 0.0048
2,ACTAGGGA,-0.0129 ± 0.068
3,AGATGGGC,-0.148 ± 0.035
4,TAGTAATA,-0.152 ± 0.009
5,AAGCTTAT,-0.174 ± 0.015
6,AAGAGACT,-0.173 ± 0.024
7,CCATTCGG,-0.226 ± 0.014
8,AACAACAC,0.363 ± 0.01
9,CTCGGTAA,-0.0921 ± 0.015
10,AGATATCT,-0.236 ± 0.18
11,CGAAACCA,0.111 ± 0.049
12,ACCGATAT,-0.122 ± 0.061
13,CATCAATA,-0.168 ± 0.0056
14,AACATTAC,-0.0619 ± 0.043
15,ACAAACGC,0.0515 ± 0.0056
16,CGAACCCG,-0.0788 ± 0.0037
17,CAATAGGA,-0.278 ± 0.016
18,ACGCCGAA,-0.108 ± 0.053
19,ACACCAAT,0.3 ± 0.022
20,CCTCCGGC,-0.113 ± 0.046
21,ACCAGGAT,-0.103 ± 0.029
22,TCCTGACA,0.2143 ± 0.0011
23,CTATATGA,-0.151 ± 0.043
24,CCTCTACG,-0.092 ± 0.013
25,GCAGATCA,-0.11 ± 0.1

row,Sequence,PBM E-score of 8-mer
1,CAAGTGCA,0.182 ± 0.032
2,ATCGTATA,-0.0338 ± 0.026
3,AATTACAC,0.214 ± 0.044
4,ATTATAGG,-0.19 ± 0.026
5,AAACCAAC,-0.0437 ± 0.062
6,ACTGACCA,-0.226 ± 0.004
7,ATGGCGGC,-0.0741 ± 0.043
8,GCAATTAC,-0.103 ± 0.055
9,TAATCAAA,-0.12 ± 0.073
10,AAACCTAT,-0.135 ± 0.14
11,CAATAAGG,-0.0186 ± 0.041
12,AGGCAACA,0.0862 ± 0.017
13,AGGCGGAA,-0.0735 ± 0.055
14,GGGCGGTA,-0.15 ± 0.0098
15,TCGCACAA,0.295 ± 0.028
16,ATACATTG,-0.0781 ± 0.031
17,ATGTAGGC,-0.228 ± 0.053
18,CGAATTAG,-0.0256 ± 0.075
19,GCGGACTA,-0.173 ± 0.0084
20,GGGTATAC,-0.101 ± 0.011
21,CACCTTCG,0.431 ± 0.02
22,TCGCTGAA,-0.0277 ± 0.0086
